# Reference: the supplement of paper PMC8728848
# This is one part of the list.
# B1: HBHA-Rv (Mycobacterium tuberculosum), P0A5P6 (protein)
# chain: MAENSNIDDIKAPLLAALGAADLALATVNELITNLRERAEETRTDTRSRVEESRARLTKLQEDLPEQLTELREKFTAEELRKAAEGYLEAATSRYNELVERGEAALERLRSQQSFEEVSARAEGYVDQAVELTQEALGTVASQTRAVGERAAKLVGIELPKKAAPAKKAAPAKKAAPAKKAAAKKAPAKKAAAKKVTQK
# Tests used:
# Test in all cases: glycan array binding signal (z-score within array); higher = stronger binding
# Details in all cases: glycan notation: IUPAC condensed, linker removed
# [1] = target: Man(a1-2)Man(a1-3)[Man(a1-2)Man(a1-6)]Man
# Outline: (§1)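 The binding signal is a Z-score computed within each array and averaged over linkers. Arrays of the same protein sequence at different concentrations or buffers were also averaged together. Data originate from 3228 arrays in the Consortium for Functional Glycomics database, kept only where the protein sequence was available.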
# [2] = target: Man(a1-2)Man(a1-3)[Man(a1-2)Man(a1-6)]Man(a1-6)[Man(a1-2)Man(a1-2)Man(a1-3)]Man
# Outline: as §1
# [3] = target: Man(a1-2)Man(a1-3)[Man(a1-2)Man(a1-6)]Man(a1-6)[Man(a1-2)Man(a1-2)Man(a1-3)]Man(b1-4)GlcNAc(b1-4)GlcNAc
# Outline: as §1
# [4] = target: Man(a1-2)Man(a1-3)[Man(a1-6)]Man(a1-6)[Man(a1-2)Man(a1-3)]Man(b1-4)GlcNAc(b1-4)GlcNAc
# Outline: as §1
# [5] = target: Man(a1-2)Man(a1-6)[Man(a1-3)]Man(a1-6)[Man(a1-2)Man(a1-2)Man(a1-3)]Man
# Outline: as §1
# [6] = target: Man(a1-2)Man(a1-6)[Man(a1-3)]Man(a1-6)[Man(a1-2)Man(a1-2)Man(a1-3)]Man(b1-4)GlcNAc(b1-4)GlcNAc
# Outline: as §1
# Man(a1-3)[Man(a1-6)]Man = target: Man(a1-3)[Man(a1-6)]Man
# Outline: as §1
# [7] = target: Man(a1-3)[Man(a1-6)]Man(a1-6)[Man(a1-2)Man(a1-3)]Man(b1-4)GlcNAc(b1-4)GlcNAc
# Outline: as §1
# [8] = target: Man(a1-3)[Man(a1-6)]Man(a1-6)[Man(a1-3)]Man
# Outline: as §1
# [9] = target: Man(a1-3)[Man(a1-6)]Man(a1-6)[Man(a1-3)]Man(b1-4)GlcNAc(b1-4)GlcNAc
# Outline: as §1
# [10] = target: Man(a1-3)[Man(a1-6)]Man(b1-4)GlcNAc(b1-4)GlcNAc
# Outline: as §1
# [11] = target: Man(a1-3)[Man(a1-6)]Man(b1-4)GlcNAc(b1-4)[Fuc(a1-6)]GlcNAc
# Outline: as §1
# Man(a1-6)Man = target: Man(a1-6)Man
# Outline: as §1
# Man(b1-4)GlcNAc = target: Man(b1-4)GlcNAc
# Outline: as §1
# MurNAc(b1-4)GlcNAc = target: MurNAc(b1-4)GlcNAc
# Outline: as §1
# Neu5Ac(a2-3)Gal = target: Neu5Ac(a2-3)Gal
# Outline: as §1
# [12] = target: Neu5Ac(a2-3)Gal(b1-3)GalNAc
# Outline: as §1
# [13] = target: Neu5Ac(a2-3)Gal(b1-3)GalNAc(b1-3)Gal(a1-4)Gal(b1-4)Glc
# Outline: as §1
# [14] = target: Neu5Ac(a2-3)Gal(b1-3)GalNAc(b1-4)[Neu5Ac(a2-3)]Gal(b1-4)Glc
# Outline: as §1
# [15] = target: Neu5Ac(a2-3)Gal(b1-3)GalNAc(b1-4)[Neu5Ac(a2-8)Neu5Ac(a2-3)]Gal(b1-4)Glc
# Outline: as §1
# [16] = target: Neu5Ac(a2-3)Gal(b1-3)GalNAc6S
# Outline: as §1
# [17] = target: Neu5Ac(a2-3)Gal(b1-3)GlcNAc
# Outline: as §1
# [18] = target: Neu5Ac(a2-3)Gal(b1-3)GlcNAc(b1-2)Man
# Outline: as §1
# [19] = target: Neu5Ac(a2-3)Gal(b1-3)GlcNAc(b1-2)Man(a1-3)[GlcNAc(b1-4)][Neu5Ac(a2-3)Gal(b1-3)GlcNAc(b1-2)Man(a1-6)]Man(b1-4)GlcNAc(b1-4)GlcNAc
# Outline: as §1
# [20] = target: Neu5Ac(a2-3)Gal(b1-3)GlcNAc(b1-2)Man(a1-3)[Neu5Ac(a2-3)Gal(b1-3)GlcNAc(b1-2)Man(a1-6)]Man(b1-4)GlcNAc(b1-4)GlcNAc
# Outline: as §1
# [21] = target: Neu5Ac(a2-3)Gal(b1-3)GlcNAc(b1-3)Gal(b1-3)GlcNAc
# Outline: as §1
# [22] = target: Neu5Ac(a2-3)Gal(b1-3)GlcNAc(b1-3)Gal(b1-4)GlcNAc
# Outline: as §1
# [23] = target: Neu5Ac(a2-3)Gal(b1-3)GlcNAc(b1-3)GalNAc
# Outline: as §1
# [24] = target: Neu5Ac(a2-3)Gal(b1-3)GlcNAc(b1-4)Gal(b1-4)Glc
# Outline: as §1
# [25] = target: Neu5Ac(a2-3)Gal(b1-3)GlcNAc(b1-6)GalNAc
# Outline: as §1
# [26] = target: Neu5Ac(a2-3)Gal(b1-3)GlcNAc6S
# Outline: as §1
# [27] = target: Neu5Ac(a2-3)Gal(b1-3)[Fuc(a1-4)]GlcNAc
# Outline: as §1
# [28] = target: Neu5Ac(a2-3)Gal(b1-3)[Fuc(a1-4)]GlcNAc(b1-3)Gal(b1-3)[Fuc(a1-4)]GlcNAc
# Outline: as §1
# [29] = target: Neu5Ac(a2-3)Gal(b1-3)[Fuc(a1-4)]GlcNAc(b1-3)Gal(b1-4)[Fuc(a1-3)]GlcNAc
# Outline: as §1
# [30] = target: Neu5Ac(a2-3)Gal(b1-3)[GlcNAc(b1-6)]GalNAc
# Outline: as §1
# [31] = target: Neu5Ac(a2-3)Gal(b1-3)[Neu5Ac(a2-6)]GalNAc
# Outline: as §1
# [32] = target: Neu5Ac(a2-3)Gal(b1-3)[Neu5Ac(a2-6)]GlcNAc(b1-3)[Fuc(a1-3)[Gal(b1-4)]GlcNAc(b1-6)]Gal(b1-4)Glc
# Outline: as §1
# [33] = target: Neu5Ac(a2-3)Gal(b1-3)]Neu5Ac(a2-3)Gal(b1-4)]GlcNAc
# Outline: as §1
# Neu5Ac(a2-3)Gal(b1-4)Glc = target: Neu5Ac(a2-3)Gal(b1-4)Glc
# Outline: as §1
# [34] = target: Neu5Ac(a2-3)Gal(b1-4)GlcNAc
# Outline: as §1
# [35] = target: Neu5Ac(a2-3)Gal(b1-4)GlcNAc(b1-2)Man
# Outline: as §1
# [36] = target: Neu5Ac(a2-3)Gal(b1-4)GlcNAc(b1-2)Man(a1-3)[GlcNAc(b1-4)][Neu5Ac(a2-3)Gal(b1-4)GlcNAc(b1-2)Man(a1-6)]Man(b1-4)GlcNAc(b1-4)GlcNAc
# Outline: as §1
# [37] = target: Neu5Ac(a2-3)Gal(b1-4)GlcNAc(b1-2)Man(a1-3)[Neu5Ac(a2-3)Gal(b1-4)GlcNAc(b1-2)Man(a1-6)]Man(b1-4)GlcNAc(b1-4)GlcNAc
# Outline: as §1
# [38] = target: Neu5Ac(a2-3)Gal(b1-4)GlcNAc(b1-2)Man(a1-3)[Neu5Ac(a2-3)Gal(b1-4)GlcNAc(b1-2)Man(a1-6)]Man(b1-4)GlcNAc(b1-4)[Fuc(a1-6)]GlcNAc
# Outline: as §1
# [39] = target: Neu5Ac(a2-3)Gal(b1-4)GlcNAc(b1-2)Man(a1-3)[Neu5Ac(a2-6)Gal(b1-4)GlcNAc(b1-2)Man(a1-6)]Man(b1-4)GlcNAc(b1-4)GlcNAc
# Outline: as §1
binder,measurement,setting,value
B1,glycan array binding signal (z-score),[1],0.243
same,glycan array binding signal (z-score),[2],-0.258
same,glycan array binding signal (z-score),[3],-0.264
same,glycan array binding signal (z-score),[4],0.639
same,glycan array binding signal (z-score),[5],-0.357
same,glycan array binding signal (z-score),[6],1.09
same,glycan array binding signal (z-score),Man(a1-3)[Man(a1-6)]Man,0.599
same,glycan array binding signal (z-score),[7],0.108
same,glycan array binding signal (z-score),[8],-0.429
same,glycan array binding signal (z-score),[9],-0.275
same,glycan array binding signal (z-score),[10],0.222
same,glycan array binding signal (z-score),[11],-0.167
same,glycan array binding signal (z-score),Man(a1-6)Man,-0.262
same,glycan array binding signal (z-score),Man(b1-4)GlcNAc,-0.127
same,glycan array binding signal (z-score),MurNAc(b1-4)GlcNAc,-0.418
same,glycan array binding signal (z-score),Neu5Ac(a2-3)Gal,0.027
same,glycan array binding signal (z-score),[12],1.62
same,glycan array binding signal (z-score),[13],-0.294
same,glycan array binding signal (z-score),[14],-0.466
same,glycan array binding signal (z-score),[15],-0.059
same,glycan array binding signal (z-score),[16],0.764
same,glycan array binding signal (z-score),[17],0.026
same,glycan array binding signal (z-score),[18],-0.463
same,glycan array binding signal (z-score),[19],-0.317
same,glycan array binding signal (z-score),[20],-0.163
same,glycan array binding signal (z-score),[21],-0.434
same,glycan array binding signal (z-score),[22],-0.181
same,glycan array binding signal (z-score),[23],-0.403
same,glycan array binding signal (z-score),[24],-0.273
same,glycan array binding signal (z-score),[25],-0.423
same,glycan array binding signal (z-score),[26],0.36
same,glycan array binding signal (z-score),[27],-0.12
same,glycan array binding signal (z-score),[28],-0.246
same,glycan array binding signal (z-score),[29],-0.148
same,glycan array binding signal (z-score),[30],-0.394
same,glycan array binding signal (z-score),[31],0.186
same,glycan array binding signal (z-score),[32],-0.43
same,glycan array binding signal (z-score),[33],-0.468
same,glycan array binding signal (z-score),Neu5Ac(a2-3)Gal(b1-4)Glc,0.656
same,glycan array binding signal (z-score),[34],-0.064
same,glycan array binding signal (z-score),[35],-0.023
same,glycan array binding signal (z-score),[36],-0.354
same,glycan array binding signal (z-score),[37],-0.46
same,glycan array binding signal (z-score),[38],-0.174
same,glycan array binding signal (z-score),[39],-0.291
